# Test results published in the supplement of paper PMC10338343.
# ± gives the standard deviation. The full ranking holds about 5,500 sequences; the median of “pre-steady-state target cleavage rate” is about 0.1, and the highest 2% start at about 0.64. Only a part is listed here, and it is no random draw.
# System: MIWI (PIWIL1) piRISC loaded with piRNA #2 (30 nt)
# Assay: pre-steady-state target cleavage rate (min^-1); MIWI and MILI are mouse PIWI proteins and EfPiwi is from a freshwater sponge; tags in brackets are library labels; higher = faster piRNA-guided slicing of the target
# Details: guide: piRNA #2 5'p-UUAGGUAACCCAGUAGAUCCAGAGGAAUUC; auxiliary factor: 500 nM mouse GTSF1
# Summary of the method: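 Cleave-'n-Seq: 1 nM active affinity-purified piRISC with one synthetic guide and 0.1 nM transcribed, DNA-blocked target RNA library were mixed, with or without 500 nM GTSF1 partner protein, in HEPES–potassium acetate buffer at 33 °C for 0–8 or 0–960 min. Uncleaved targets were sequenced and normalised to depth and to weakly complementary targets, three trials were pooled, and k3 was capped at 0.0001 min^-1. The pre-steady-state cleavage rate was fitted […].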
row,Sequence,pre-steady-state target cleavage rate
1,CUUUUCCUCUGGUUCUACUGGGUUUCCUAA,0.522 ± 0.19
2,GAUUUCCUGUGGAUCUACUGGGUUACCUAA,0.292 ± 0.054
3,CUUAACCUCUGGAUCUACUGGGUAACCUAA,0.101 ± 0.019
4,CUAAUCCUCUGGAUCUACUGGGUAACCUAA,0.225 ± 0.041
5,CUUUUCCUCUGGAUCUACUGGGUUACCUCA,0.266 ± 0.037
6,CUUAAGCUCUCGGAUCUACUGGGUUACCUAA,0.231 ± 0.021
7,CUUUUCCUCUGGAUCUAGUGGGUUAGCUAA,0.0499 ± 0.011
8,CUUAAGCUCUGGAUCUACUGCGUUAGCUAA,0.0125 ± 0.0073
9,CUUAAGGAGACGAUCUACUGAGUUACCUAA,0.0052 ± 0.002
10,CUUAAGCUCUGGAUCUACUGGGUUACCUAC [g2:g24:cont:t1C],0.0862 ± 0.012
11,CUUAAGCUCUGGAUCUUCAGGGUUACCUAA,0.0391 ± 0.0084
12,CUUAAGGUCUGGAUCUACUGGGUUACCUAAA,0.208 ± 0.033
13,CAAUUCCUCUGGAUCUACUGCCAUACCUAA,0.00494 ± 0.0031
14,CUUAACCUCUGGAUCUAGUGGGUUACCUAA,0.13 ± 0.012
15,CUAUUCCUCUGCAUCUACUGGGUUACGUAA,0.31 ± 0.037
16,CUUAAGGAGUGGUUCUACUGCGUUACCUAA,0.0144 ± 0.0057
17,CUAUUCCUCUCGAUCUACUGGCUUACCUAA,0.181 ± 0.015
18,CUAUUCCUCAGCAUCUACUGGGUUACCUAA,0.409 ± 0.036
19,CUUAAGGACUGGAUCAACUGGGUUACCUAA,0.103 ± 0.053
20,CUUAAGGUCUGGAUCAACUGGGUAACCUAA,0.0235 ± 0.018
21,CUUAAGGUCAGGAACUACUGGGUUACCUAA,0.0207 ± 0.008
22,CUUUUCCUCUGGAUCUACUGGGUUACUAA,0.215 ± 0.044
23,GAAUUCCUCUGGAACUACUCGGUUACCUAA,0.146 ± 0.027
24,CUUAACCUCUGGAUCUACCGGGUUACCUAA,0.0969 ± 0.0077

row,Sequence,pre-steady-state target cleavage rate
1,CUUAAGGUCUCGAUCUACUGCGUUACCUAA,0.128 ± 0.021
2,CUUUUCGUCUCGAUCUACUGGGUUACCUAA,0.446 ± 0.046
3,CUUAACCUCUGGUACUACUGGGUUACCUAA,0.421 ± 0.041
4,CUUAUCGUCUGCAUCUACUGGGUUACCUAA,0.368 ± 0.045
5,CUAUUUCUCUGGAUCUACUGGGUUACCUAA,0.242 ± 0.041
6,CUUAAGGACUGGAUCAACUGGGUUACGUAA,0.3 ± 0.077
7,CUUUUCGUCAGGAUCUACUGGGUUACCUAA,0.299 ± 0.05
8,CAAUUCCUCUGGAUCUACUGGGAUACCUAA,0.397 ± 0.047
9,CAAUACCUCUGGAUCUACUGGGUUACGUAA,0.567 ± 0.059
10,CUUAAGCUCUGGAUGUACUGGGUAACCUAA,0.0678 ± 0.013
11,CAAUUCCUCUGGAUAUACUGGGUUACCUAA,0.724 ± 0.043
12,CUUAUCCUCUGGAUCCUACUGGGUUACCUAA,0.171 ± 0.032
13,GAAUUGCUCUGGAUGUACUGGGUUACCUAA,0.121 ± 0.03
14,CAAUUCCUCGGGAUCUACUGGGUUACCUAA,0.453 ± 0.086
15,CUUAUCCGCUGGAUCUACUGGGUUACCUAA,0.48 ± 0.048
16,GUAUUCCUCUGGAUCUACUGGGUUAGCUAA,0.474 ± 0.08
17,CUUAAGCUCUGGAUCUAGUGCGUUACCUAA,0.0254 ± 0.007
18,CAAUUCCUCUGGAUCUUCUGCGUUACCUAA,0.331 ± 0.047
19,CUUUUGGUCUGGAUCUACUGGGUUACCUAA,0.319 ± 0.03
20,GUAUUCCUCUGGAUCUACAGGGUUACCUAA,0.064 ± 0.014
21,CAAUUCCUCUGAAUCUACUGGGUUACCUAA,0.337 ± 0.057
22,CUUUUCCUGCUGGAUCUACUGGGUUACCUAA,0.459 ± 0.041
23,CAAUUCGUCUGGAUCUACUGGGUUACCUAA,0.463 ± 0.054
24,CAAUUCCUCUGGAUCUACUGGGUUACCUUAA,0.427 ± 0.057

row,Sequence,pre-steady-state target cleavage rate
1,CUUAUCCUCUGGAUCUACUGGGUUCACCUAA,0.335 ± 0.045
2,CUUAAGGAGUGGAUCUACUGGGUUAACCUAA,0.0543 ± 0.019
3,CUUAAGGUCUGGAUCUUCUGGGUUACGUAA,0.225 ± 0.034
4,CUAUUCCUCUGGACUCUACUGGGUUACCUAA,0.222 ± 0.039
5,CUUAAGGAGACCUAGAUCUGGGGUACCUAA,< 0.0001
6,CUUAACCUCUGCAUCAACUGGGUUACCUAA,0.281 ± 0.025
7,CUAUUCCUCUGGAUCUACUGGGUUACGCUAA,0.576 ± 0.06
8,CAAUUCCUGUGGAUCUACUCGGUUACCUAA,0.0786 ± 0.019
9,CUUAAGGACUGGAUCUACUGUGUUACCUAA,0.0814 ± 0.048
10,CUUAAGGACUGGACCUACUGGGUUACCUAA,0.155 ± 0.035
11,CUUAACGUCUGGAUCUACUGGGAUACCUAA,0.206 ± 0.018
12,CUUAAGGACUGGAUCUACUGCGUUACGUAA,0.26 ± 0.071
13,CUUAACCUCUGGAUCUACAGCGUUACCUAA,0.113 ± 0.011
14,CAAUUCAUCUGGAUCUACUGGGUUACCUAA,0.509 ± 0.048
15,CUUAAGGAGACCUAGAACAGGGUUACGUAA,< 0.0001
16,GAAUUCCUCUGCAUCUACUGGGUUACCUUA,0.346 ± 0.047
17,CUUAAGGACAGGAUCUACUGCGUUACCUAA,0.0331 ± 0.017
18,CUUUUCGUCUGGAUCUACAGGGUUACCUAA,0.123 ± 0.018
19,CAAUUCCUCUGAGAUCUACUGGGUUACCUAA,0.545 ± 0.057
20,CUUAACCUCUGGAAGAACUGGGUUACCUAA,0.142 ± 0.021
21,CUUAAGCUCUGCAUGUACUGGGUUACCUAA,0.24 ± 0.038
22,CUUAUCCUCUGGAUCUACUGGGUUUCGUAA,0.259 ± 0.051
23,CUUAAGCUCUGGAUCUACUGCGAUACCUAA,0.0812 ± 0.018
